# Reference: the supplement of paper PMC8728848
# This is one part of the list.
# B1: Epa9 (Candida glabrata), CAGL0A01386g (protein)
# chain: MGSSHHHHHHSSGLVPRGSHMDITPFAHYPRPEGCSSPPNAVSVGLHMDLYNYPYLYVKNPRTGFTNDTDSDADGETDGDSAGGIEGRAGQCWNPEYQDPNFPRYGYKKYGSFGSSDHVNGKISWDHNEFKEGCKPIMARLPTAYNYPAKITFSNFTMVLSGYFKPKSTGLYKFEIHADDFILFNFGSKNAFECCNREESIDNFGPYVAYAMWPNEADQELEVYLFEDSYYPIRLFYNNRDYHSKFMVGFYPPNTEEITYDFDGYLYMLDDTGNECKDSIRYKTVCDD
# Key:
# Assay in all cases: glycan array binding signal (z-score within array); higher = stronger binding
# Settings in all cases: glycan notation: IUPAC condensed, linker removed
# [1] = molecular target: Fuc(a1-2)[GalNAc(b1-3)]Gal
# Summary of the method: (§1)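 The binding signal is a Z-score computed within each array and averaged over linkers. Arrays of the same protein sequence at different concentrations or buffers were also averaged together. Data originate from 3228 arrays in the Consortium for Functional Glycomics database, kept only where the protein sequence was available.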
# Fuc(a1-3)GlcNAc = molecular target: Fuc(a1-3)GlcNAc
# Summary of the method: as §1
# [2] = molecular target: Fuc(a1-3)[Gal(b1-4)]Glc6S
# Summary of the method: as §1
# [3] = molecular target: Fuc(a1-3)[Gal(b1-4)]GlcNAc
# Summary of the method: as §1
# [4] = molecular target: Fuc(a1-3)[Gal(b1-4)]GlcNAc(b1-2)Man
# Summary of the method: as §1
# [5] = molecular target: Fuc(a1-3)[Gal(b1-4)]GlcNAc(b1-2)Man(a1-3)[Fuc(a1-3)[Gal(b1-4)]GlcNAc(b1-2)Man(a1-6)]Man(b1-4)GlcNAc(b1-4)GlcNAc
# Summary of the method: as §1
# [6] = molecular target: Fuc(a1-3)[Gal(b1-4)]GlcNAc(b1-2)Man(a1-3)[Fuc(a1-3)[Gal(b1-4)]GlcNAc(b1-2)Man(a1-6)]Man(b1-4)GlcNAc(b1-4)[Fuc(a1-6)]GlcNAc
# Summary of the method: as §1
# [7] = molecular target: Fuc(a1-3)[Gal(b1-4)]GlcNAc(b1-3)Gal(b1-3)[Fuc(a1-4)]GlcNAc
# Summary of the method: as §1
# [8] = molecular target: Fuc(a1-3)[Gal(b1-4)]GlcNAc(b1-3)Gal(b1-4)[Fuc(a1-3)]GlcNAc
# Summary of the method: as §1
# [9] = molecular target: Fuc(a1-3)[Gal(b1-4)]GlcNAc(b1-3)Gal(b1-4)[Fuc(a1-3)]GlcNAc(b1-3)Gal(b1-4)[Fuc(a1-3)]GlcNAc
# Summary of the method: as §1
# [10] = molecular target: Fuc(a1-3)[Gal(b1-4)]GlcNAc(b1-3)GalNAc
# Summary of the method: as §1
# [11] = molecular target: Fuc(a1-3)[Gal(b1-4)]GlcNAc(b1-6)GalNAc
# Summary of the method: as §1
# [12] = molecular target: Fuc(a1-3)[Gal(b1-4)]GlcNAc(b1-6)[Gal(b1-3)GlcNAc(b1-3)]Gal(b1-4)Glc
# Summary of the method: as §1
# [13] = molecular target: Fuc(a1-3)[Gal(b1-4)]GlcNAc6S
# Summary of the method: as §1
# [14] = molecular target: Fuc(a1-3)[Gal3S(b1-4)]Glc
# Summary of the method: as §1
# [15] = molecular target: Fuc(a1-3)[Gal3S(b1-4)]GlcNAc
# Summary of the method: as §1
# [16] = molecular target: Fuc(a1-3)[Gal3S(b1-4)]GlcNAc6S
# Summary of the method: as §1
# [17] = molecular target: Fuc(a1-3)[GalNAc(b1-4)]GlcNAc
# Summary of the method: as §1
# [18] = molecular target: Fuc(a1-3)[GalNAc(b1-4)]GlcNAc6S
# Summary of the method: as §1
# Fuc(a1-4)GlcNAc = molecular target: Fuc(a1-4)GlcNAc
# Summary of the method: as §1
# Fuc(b1-3)GlcNAc = molecular target: Fuc(b1-3)GlcNAc
# Summary of the method: as §1
# Gal(a1-2)Gal = molecular target: Gal(a1-2)Gal
# Summary of the method: as §1
# Gal(a1-3)Gal = molecular target: Gal(a1-3)Gal
# Summary of the method: as §1
# Gal(a1-3)Gal(b1-3)GlcNAc = molecular target: Gal(a1-3)Gal(b1-3)GlcNAc
# Summary of the method: as §1
# [19] = molecular target: Gal(a1-3)Gal(b1-3)GlcNAc(b1-2)Man
# Summary of the method: as §1
# [20] = molecular target: Gal(a1-3)Gal(b1-3)GlcNAc(b1-2)Man(a1-3)[Gal(a1-3)Gal(b1-3)GlcNAc(b1-2)Man(a1-6)]Man(b1-4)GlcNAc(b1-4)GlcNAc
# Summary of the method: as §1
# [21] = molecular target: Gal(a1-3)Gal(b1-3)GlcNAc(b1-3)GalNAc
# Summary of the method: as §1
# [22] = molecular target: Gal(a1-3)Gal(b1-3)GlcNAc(b1-6)GalNAc
# Summary of the method: as §1
# [23] = molecular target: Gal(a1-3)Gal(b1-3)[Fuc(a1-4)]GlcNAc(b1-2)Man(a1-3)[Gal(a1-3)Gal(b1-3)[Fuc(a1-4)]GlcNAc(b1-2)Man(a1-6)]Man(b1-4)GlcNAc(b1-4)GlcNAc
# Summary of the method: as §1
# Gal(a1-3)Gal(b1-4)Glc = molecular target: Gal(a1-3)Gal(b1-4)Glc
# Summary of the method: as §1
# Gal(a1-3)Gal(b1-4)GlcNAc = molecular target: Gal(a1-3)Gal(b1-4)GlcNAc
# Summary of the method: as §1
# [24] = molecular target: Gal(a1-3)Gal(b1-4)GlcNAc(b1-2)Man
# Summary of the method: as §1
# [25] = molecular target: Gal(a1-3)Gal(b1-4)GlcNAc(b1-2)Man(a1-3)[Gal(a1-3)Gal(b1-4)GlcNAc(b1-2)Man(a1-6)]Man(b1-4)GlcNAc(b1-4)GlcNAc
# Summary of the method: as §1
# [26] = molecular target: Gal(a1-3)Gal(b1-4)GlcNAc(b1-3)GalNAc
# Summary of the method: as §1
# [27] = molecular target: Gal(a1-3)Gal(b1-4)GlcNAc(b1-6)GalNAc
# Summary of the method: as §1
# [28] = molecular target: Gal(a1-3)Gal(b1-4)[Fuc(a1-3)]GlcNAc
# Summary of the method: as §1
# [29] = molecular target: Gal(a1-3)Gal(b1-4)[Fuc(a1-3)]GlcNAc(b1-2)Man(a1-3)[Gal(a1-3)Gal(b1-4)[Fuc(a1-3)]GlcNAc(b1-2)Man(a1-6)]Man(b1-4)GlcNAc(b1-4)GlcNAc
# Summary of the method: as §1
binder,measurement,setting,value
B1,glycan array binding signal (z-score),[1],-0.476
same,glycan array binding signal (z-score),Fuc(a1-3)GlcNAc,-0.48
same,glycan array binding signal (z-score),[2],-0.393
same,glycan array binding signal (z-score),[3],-0.415
same,glycan array binding signal (z-score),[4],-0.44
same,glycan array binding signal (z-score),[5],-0.441
same,glycan array binding signal (z-score),[6],-0.354
same,glycan array binding signal (z-score),[7],-0.353
same,glycan array binding signal (z-score),[8],-0.412
same,glycan array binding signal (z-score),[9],-0.366
same,glycan array binding signal (z-score),[10],-0.372
same,glycan array binding signal (z-score),[11],-0.25
same,glycan array binding signal (z-score),[12],-0.037
same,glycan array binding signal (z-score),[13],-0.216
same,glycan array binding signal (z-score),[14],-0.43
same,glycan array binding signal (z-score),[15],-0.438
same,glycan array binding signal (z-score),[16],-0.218
same,glycan array binding signal (z-score),[17],-0.412
same,glycan array binding signal (z-score),[18],-0.463
same,glycan array binding signal (z-score),Fuc(a1-4)GlcNAc,-0.518
same,glycan array binding signal (z-score),Fuc(b1-3)GlcNAc,-0.461
same,glycan array binding signal (z-score),Gal(a1-2)Gal,-0.5
same,glycan array binding signal (z-score),Gal(a1-3)Gal,0.482
same,glycan array binding signal (z-score),Gal(a1-3)Gal(b1-3)GlcNAc,1.37
same,glycan array binding signal (z-score),[19],2.1
same,glycan array binding signal (z-score),[20],0.125
same,glycan array binding signal (z-score),[21],1.04
same,glycan array binding signal (z-score),[22],1.27
same,glycan array binding signal (z-score),[23],-0.077
same,glycan array binding signal (z-score),Gal(a1-3)Gal(b1-4)Glc,0.746
same,glycan array binding signal (z-score),Gal(a1-3)Gal(b1-4)GlcNAc,2.25
same,glycan array binding signal (z-score),[24],1.09
same,glycan array binding signal (z-score),[25],4.07
same,glycan array binding signal (z-score),[26],1.25
same,glycan array binding signal (z-score),[27],1.01
same,glycan array binding signal (z-score),[28],0.217
same,glycan array binding signal (z-score),[29],0.259
